In the supplement of paper PMC8728848:
The other results are listed elsewhere or left out.

Legend:
Assay in all cases: glycan array binding signal (z-score within array); higher = stronger binding
Details in all cases: glycan notation: IUPAC condensed, linker removed
[1] = molecular target: Neu5Ac(a2-3)Gal(b1-3)GlcNAc(b1-2)Man
Summary of the method: (§1)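 The Consortium for Functional Glycomics database supplied 3228 glycan arrays, of which those lacking an available protein sequence were dropped. The binding signal, a within-array Z-score, was averaged across arrays of the same protein sequence and across linkers. Negative scores can be read as non-binding.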

[2] = molecular target: Neu5Ac(a2-3)Gal(b1-3)GlcNAc(b1-2)Man(a1-3)[GlcNAc(b1-4)][Neu5Ac(a2-3)Gal(b1-3)GlcNAc(b1-2)Man(a1-6)]Man(b1-4)GlcNAc(b1-4)GlcNAc
Summary of the method: as §1

[3] = molecular target: Neu5Ac(a2-3)Gal(b1-3)GlcNAc(b1-2)Man(a1-3)[Neu5Ac(a2-3)Gal(b1-3)GlcNAc(b1-2)Man(a1-6)]Man(b1-4)GlcNAc(b1-4)GlcNAc
Summary of the method: as §1

[4] = molecular target: Neu5Ac(a2-3)Gal(b1-3)GlcNAc(b1-2)[Neu5Ac(a2-3)Gal(b1-3)GlcNAc(b1-4)]Man(a1-6)[Neu5Ac(a2-3)Gal(b1-3)GlcNAc(b1-2)Man(a1-3)]Man(b1-4)GlcNAc(b1-4)GlcNAc
Summary of the method: as §1

[5] = molecular target: Neu5Ac(a2-3)Gal(b1-3)GlcNAc(b1-3)Gal(b1-3)GlcNAc
Summary of the method: as §1

[6] = molecular target: Neu5Ac(a2-3)Gal(b1-3)GlcNAc(b1-3)Gal(b1-4)GlcNAc
Summary of the method: as §1

[7] = molecular target: Neu5Ac(a2-3)Gal(b1-3)GlcNAc(b1-3)GalNAc
Summary of the method: as §1

[8] = molecular target: Neu5Ac(a2-3)Gal(b1-3)GlcNAc(b1-6)GalNAc
Summary of the method: as §1

[9] = molecular target: Neu5Ac(a2-3)Gal(b1-3)GlcNAc6S
Summary of the method: as §1

[10] = molecular target: Neu5Ac(a2-3)Gal(b1-3)[Fuc(a1-4)]GlcNAc
Summary of the method: as §1

[11] = molecular target: Neu5Ac(a2-3)Gal(b1-3)[Fuc(a1-4)]GlcNAc(b1-3)Gal(b1-3)[Fuc(a1-4)]GlcNAc
Summary of the method: as §1

[12] = molecular target: Neu5Ac(a2-3)Gal(b1-3)[Fuc(a1-4)]GlcNAc(b1-3)Gal(b1-4)[Fuc(a1-3)]GlcNAc
Summary of the method: as §1

[13] = molecular target: Neu5Ac(a2-3)Gal(b1-3)[GlcNAc(b1-6)]GalNAc
Summary of the method: as §1

[14] = molecular target: Neu5Ac(a2-3)Gal(b1-3)[Neu5Ac(a2-6)]GalNAc
Summary of the method: as §1

[15] = molecular target: Neu5Ac(a2-3)Gal(b1-3)[Neu5Ac(a2-6)]GlcNAc(b1-3)[Fuc(a1-3)[Gal(b1-4)]GlcNAc(b1-6)]Gal(b1-4)Glc
Summary of the method: as §1

[16] = molecular target: Neu5Ac(a2-3)Gal(b1-3)]Neu5Ac(a2-3)Gal(b1-4)]GlcNAc
Summary of the method: as §1

[17] = molecular target: Neu5Ac(a2-3)Gal(b1-4)Glc
Summary of the method: as §1

[18] = molecular target: Neu5Ac(a2-3)Gal(b1-4)GlcNAc
Summary of the method: as §1

[19] = molecular target: Neu5Ac(a2-3)Gal(b1-4)GlcNAc(b1-2)Man
Summary of the method: as §1

[20] = molecular target: Neu5Ac(a2-3)Gal(b1-4)GlcNAc(b1-2)Man(a1-3)[GlcNAc(b1-4)][Neu5Ac(a2-3)Gal(b1-4)GlcNAc(b1-2)Man(a1-6)]Man(b1-4)GlcNAc(b1-4)GlcNAc
Summary of the method: as §1

[21] = molecular target: Neu5Ac(a2-3)Gal(b1-4)GlcNAc(b1-2)Man(a1-3)[Neu5Ac(a2-3)Gal(b1-4)GlcNAc(b1-2)Man(a1-6)]Man(b1-4)GlcNAc(b1-4)GlcNAc
Summary of the method: as §1

[22] = molecular target: Neu5Ac(a2-3)Gal(b1-4)GlcNAc(b1-2)Man(a1-3)[Neu5Ac(a2-3)Gal(b1-4)GlcNAc(b1-2)Man(a1-6)]Man(b1-4)GlcNAc(b1-4)[Fuc(a1-6)]GlcNAc
Summary of the method: as §1

[23] = molecular target: Neu5Ac(a2-3)Gal(b1-4)GlcNAc(b1-2)Man(a1-3)[Neu5Ac(a2-6)Gal(b1-4)GlcNAc(b1-2)Man(a1-6)]Man(b1-4)GlcNAc(b1-4)GlcNAc
Summary of the method: as §1

[24] = molecular target: Neu5Ac(a2-3)Gal(b1-4)GlcNAc(b1-2)[Neu5Ac(a2-3)Gal(b1-4)GlcNAc(b1-4)]Man(a1-3)[GlcNAc(b1-4)][Neu5Ac(a2-3)Gal(b1-4)GlcNAc(b1-2)[Neu5Ac(a2-3)Gal(b1-4)GlcNAc(b1-6)]Man(a1-6)]Man(b1-4)GlcNAc(b1-4)GlcNAc
Summary of the method: as §1

[25] = molecular target: Neu5Ac(a2-3)Gal(b1-4)GlcNAc(b1-2)[Neu5Ac(a2-3)Gal(b1-4)GlcNAc(b1-4)]Man(a1-3)[GlcNAc(b1-4)][Neu5Ac(a2-3)Gal(b1-4)GlcNAc(b1-4)Man(a1-6)]Man(b1-4)GlcNAc(b1-4)GlcNAc
Summary of the method: as §1

[26] = molecular target: Neu5Ac(a2-3)Gal(b1-4)GlcNAc(b1-2)[Neu5Ac(a2-3)Gal(b1-4)GlcNAc(b1-6)]Man(a1-6)[Neu5Ac(a2-3)Gal(b1-4)GlcNAc(b1-2)Man(a1-3)][GlcNAc(b1-4)]Man(b1-4)GlcNAc(b1-4)GlcNAc
Summary of the method: as §1

[27] = molecular target: Neu5Ac(a2-3)Gal(b1-4)GlcNAc(b1-3)Gal
Summary of the method: as §1

[28] = molecular target: Neu5Ac(a2-3)Gal(b1-4)GlcNAc(b1-3)Gal(b1-3)GlcNAc
Summary of the method: as §1

[29] = molecular target: Neu5Ac(a2-3)Gal(b1-4)GlcNAc(b1-3)Gal(b1-4)GlcNAc
Summary of the method: as §1

[30] = molecular target: Neu5Ac(a2-3)Gal(b1-4)GlcNAc(b1-3)Gal(b1-4)GlcNAc(b1-2)Man(a1-3)[Neu5Ac(a2-3)Gal(b1-4)GlcNAc(b1-3)Gal(b1-4)GlcNAc(b1-2)Man(a1-6)]Man(b1-4)GlcNAc(b1-4)GlcNAc
Summary of the method: as §1

[31] = molecular target: Neu5Ac(a2-3)Gal(b1-4)GlcNAc(b1-3)Gal(b1-4)GlcNAc(b1-3)Gal(b1-4)GlcNAc
Summary of the method: as §1

[32] = molecular target: Neu5Ac(a2-3)Gal(b1-4)GlcNAc(b1-3)Gal(b1-4)GlcNAc(b1-3)Gal(b1-4)GlcNAc(b1-2)Man(a1-3)[Neu5Ac(a2-3)Gal(b1-4)GlcNAc(b1-3)Gal(b1-4)GlcNAc(b1-3)Gal(b1-4)GlcNAc(b1-2)Man(a1-6)]GalNAc
Summary of the method: as §1

[33] = molecular target: Neu5Ac(a2-3)Gal(b1-4)GlcNAc(b1-3)Gal(b1-4)GlcNAc(b1-3)GalNAc
Summary of the method: as §1

[34] = molecular target: Neu5Ac(a2-3)Gal(b1-4)GlcNAc(b1-3)Gal(b1-4)GlcNAc(b1-3)[Neu5Ac(a2-3)Gal(b1-4)GlcNAc(b1-3)Gal(b1-4)GlcNAc(b1-6)]GalNAc
Summary of the method: as §1

[35] = molecular target: Neu5Ac(a2-3)Gal(b1-4)GlcNAc(b1-3)Gal(b1-4)GlcNAc(b1-6)[Gal(b1-3)]GalNAc
Summary of the method: as §1

[36] = molecular target: Neu5Ac(a2-3)Gal(b1-4)GlcNAc(b1-3)Gal(b1-4)[Fuc(a1-3)]GlcNAc
Summary of the method: as §1

[37] = molecular target: Neu5Ac(a2-3)Gal(b1-4)GlcNAc(b1-3)GalNAc
Summary of the method: as §1

[38] = molecular target: Neu5Ac(a2-3)Gal(b1-4)GlcNAc(b1-3)[Neu5Ac(a2-3)Gal(b1-4)GlcNAc(b1-6)]GalNAc
Summary of the method: as §1

B1: B160 (Bifidobacterium sp) (protein)
chain: MVSHNKRIVAALAAVAAMGIGLAGCGGSDTAGDTKSGSDGGVVNITYMHRLPDSEGMTLVNDIVAKWNKEHPNIQVKATKFDGNAADMIKKLETDVKAGNAPDLAQVGYAEVPEVFTKGLLQDVTDEAAKYKDDFASGPFALMQVDGKTYGLPQDTGPLTYFYNAAEFEKLGITVPKTADELIETAKKTAAQGKYIMTFTPDEAMMMMSGQAGASGPWYKVDGNSWVVNTQTKGSKAVADVYQQLIDNKAALTNPRWDASFDNSIQSGQLIGTVAAAWEAPLFIDSAGGTGAGEWKVTQLGDWFGNGTKTGANGGSGVAVLKGSKHPAEAMEFLDWFNTQVDDLVSQGLVVAATTADAKTPQKWSDYFSGQDVMAEFKTANDNMGDFTYMPGFSAVGAAMKQTAAKAADGSAKVSDVFDTAQKTSVDTLKNLGLSVKE
glycan array binding signal (z-score) [1]: -0.194
glycan array binding signal (z-score) [2]: -0.177
glycan array binding signal (z-score) [3]: -0.173
glycan array binding signal (z-score) [4]: -0.099
glycan array binding signal (z-score) [5]: -0.167
glycan array binding signal (z-score) [6]: -0.164
glycan array binding signal (z-score) [7]: -0.188
glycan array binding signal (z-score) [8]: -0.161
glycan array binding signal (z-score) [9]: -0.173
glycan array binding signal (z-score) [10]: -0.184
glycan array binding signal (z-score) [11]: -0.135
glycan array binding signal (z-score) [12]: -0.153
glycan array binding signal (z-score) [13]: -0.163
glycan array binding signal (z-score) [14]: -0.176
glycan array binding signal (z-score) [15]: -0.173
glycan array binding signal (z-score) [16]: -0.167
glycan array binding signal (z-score) [17]: -0.173
glycan array binding signal (z-score) [18]: -0.174
glycan array binding signal (z-score) [19]: -0.13
glycan array binding signal (z-score) [20]: -0.16
glycan array binding signal (z-score) [21]: -0.149
glycan array binding signal (z-score) [22]: -0.158
glycan array binding signal (z-score) [23]: -0.194
glycan array binding signal (z-score) [24]: -0.153
glycan array binding signal (z-score) [25]: -0.109
glycan array binding signal (z-score) [26]: -0.18
glycan array binding signal (z-score) [27]: -0.166
glycan array binding signal (z-score) [28]: -0.171
glycan array binding signal (z-score) [29]: -0.176
glycan array binding signal (z-score) [30]: -0.121
glycan array binding signal (z-score) [31]: -0.174
glycan array binding signal (z-score) [32]: -0.099
glycan array binding signal (z-score) [33]: -0.179
glycan array binding signal (z-score) [34]: -0.107
glycan array binding signal (z-score) [35]: -0.181
glycan array binding signal (z-score) [36]: -0.185
glycan array binding signal (z-score) [37]: -0.103
glycan array binding signal (z-score) [38]: -0.177
